# Publication PMC4336329 (PLoS ONE, 2015)
# The whole screen tested about 310,000 compounds, of which about 14,000 (4.5%) showed an effect of 50% or more. Effects have a minus sign here. Some of the results follow.
# Target: human ether-à-go-go-related gene (hERG) potassium channel (human, UniProt Q12809)
# Test: primary screen, population patch clamp on CHO cells stably expressing hERG
# 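Note: peak tail current of the secondary pulse compared with the same well before compound.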
# human ether-à-go-go-related gene (hERG) potassium channel, sequence (Q12809 whole entry, looked up): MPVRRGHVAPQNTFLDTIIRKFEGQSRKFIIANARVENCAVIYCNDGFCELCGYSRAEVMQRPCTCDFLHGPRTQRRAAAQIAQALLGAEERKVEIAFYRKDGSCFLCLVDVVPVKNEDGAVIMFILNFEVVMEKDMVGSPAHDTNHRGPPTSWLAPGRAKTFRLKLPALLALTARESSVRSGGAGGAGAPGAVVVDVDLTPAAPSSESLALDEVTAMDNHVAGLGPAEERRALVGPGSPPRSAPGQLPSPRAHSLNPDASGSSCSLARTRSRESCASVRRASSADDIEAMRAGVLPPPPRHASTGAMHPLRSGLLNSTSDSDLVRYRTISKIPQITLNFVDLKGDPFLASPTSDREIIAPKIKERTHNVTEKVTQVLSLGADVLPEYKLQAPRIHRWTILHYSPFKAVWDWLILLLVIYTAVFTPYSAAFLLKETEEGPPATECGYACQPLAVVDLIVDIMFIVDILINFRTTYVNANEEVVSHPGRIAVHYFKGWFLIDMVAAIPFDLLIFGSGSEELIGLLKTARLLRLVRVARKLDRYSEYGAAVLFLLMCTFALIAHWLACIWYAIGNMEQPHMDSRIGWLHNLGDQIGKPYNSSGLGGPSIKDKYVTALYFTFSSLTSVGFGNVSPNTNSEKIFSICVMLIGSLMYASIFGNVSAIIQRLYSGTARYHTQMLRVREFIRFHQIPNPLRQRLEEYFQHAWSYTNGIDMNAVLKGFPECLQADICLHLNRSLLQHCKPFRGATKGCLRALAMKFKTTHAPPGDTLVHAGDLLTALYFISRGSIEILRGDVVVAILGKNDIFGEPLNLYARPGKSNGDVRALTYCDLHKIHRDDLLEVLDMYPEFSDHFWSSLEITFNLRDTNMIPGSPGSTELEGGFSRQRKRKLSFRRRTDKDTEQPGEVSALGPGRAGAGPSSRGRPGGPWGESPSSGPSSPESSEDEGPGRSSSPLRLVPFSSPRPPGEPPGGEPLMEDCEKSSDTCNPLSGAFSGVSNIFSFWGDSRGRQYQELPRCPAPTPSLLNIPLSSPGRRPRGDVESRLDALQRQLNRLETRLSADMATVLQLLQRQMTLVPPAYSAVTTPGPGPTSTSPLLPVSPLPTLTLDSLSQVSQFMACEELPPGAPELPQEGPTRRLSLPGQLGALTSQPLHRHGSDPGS
row,SMILES,"hERG current change (%, negative = inhibition) at 10uM"
1,Cc1cccc(C(=O)OCC(=O)c2c(N)n(CC(C)C)c(=O)n(C)c2=O)c1[N+](=O)[O-],-29.1%
2,Cc1c(C)c2ccc(OC(C)C(=O)NCCc3c[nH]c4ccccc34)cc2oc1=O (centres unmarked),-2.3%
3,CCNC(=O)CN(C1CCCCC1)S(C)(=O)=O,-0.485%
4,CCn1c(NCc2cccc(OC)c2OC)nc2ccccc21,-21%
5,CC(=O)OCCNc1cc(SC(C)C)c2nonc2c1[N+](=O)[O-],-3.86%
6,Cc1ccc(N=C2NC(=O)/C(=C/C=C/c3ccco3)S2)cc1,25.4%
7,CCC1CC(C)(C(=O)Nc2ccc(S(N)(=O)=O)cc2)OC1=O (centres unmarked),2.52%
8,COC(=O)COc1ccc(S(=O)(=O)N2CCN(c3ccccc3F)CC2)cc1,-3.27%
9,Cc1cc(C)n2ncc(S(=O)(=O)c3ccccc3)c2n1,7.89%
10,CCOC(=O)CNC(=O)C1CCCN(c2ncccn2)C1 (centres unmarked),19.6%
11,C=CCOc1ccc(CNC(C)(C)CO)cc1OCC.Cl,5.02%
12,Cc1ccc(NC(=S)c2nc3ccccc3[nH]2)c(C)c1,15.2%
13,CCCN(CC(=O)Nc1ccccc1OC)C(C)C(=O)NC(C)CCc1ccccc1 (centres unmarked),4.82%
14,COc1ccc(N(C(=O)CNC(=O)c2ccco2)C(C(=O)NC2CCCC2)c2cccnc2)cc1 (centres unmarked),17.1%
15,Cc1ccc(S(=O)(=O)C2CS(=O)(=O)CC2O)cc1 (centres unmarked),17.5%
16,CCOC(=O)N1CCN(C(=O)COC(=O)c2ccccc2NCCO)CC1,13.3%
17,O=C(O)CCC(=O)NNC(=O)c1cccs1,21.8%
18,CCOc1ccc(N(C)C(=O)CCc2nnc3ccc(N4CCCC4)nn23)cc1,7.97%
19,Clc1ccc(Nc2ncn[nH]2)cc1,11.6%
20,CC12CCCCC1(O)[N+](=O)C1=C(CCCC1)N2[O-] (centres unmarked),17.1%
21,Cc1ccc(N(Cc2cc3ccccc3[nH]c2=O)C(=O)c2cccs2)cc1,-2.92%
22,Cc1n[nH]c(C)c1C(=O)CC1(O)C(=O)N(CCc2ccccc2)c2ccc(Cl)cc21 (centres unmarked),-10.2%
23,N#Cc1ccccc1OCC(=O)OCC(=O)NCc1ccc2c(c1)OCO2,6.83%

row,SMILES,"hERG current change (%, negative = inhibition) at 10uM"
1,Cc1ccc(/C(O)=C/c2nc3cc(C)ccc3oc2=O)cc1,6.31%
2,O=C(NCc1ccccc1)c1cccc(OCC(=O)N2CCN(C(=O)c3ccco3)CC2)c1,-41.1%
3,CCOC(=O)c1ccc(NC(=O)CSc2nnc(COc3ccccc3OC)n2C)cc1,-7.45%
4,Clc1nccc(NCc2ccccc2)n1,15.3%
5,COc1ccc(N2CCN(C(=O)CN(Cc3ccc(Cl)cc3)S(C)(=O)=O)CC2)cc1,-20.1%
6,C=C(C)C1Cc2cc3ccc(=O)oc3cc2O1 (centres unmarked),-9.43%
7,Cl.OCCNc1nc2ccccc2n1CCN1CCCCC1,-30.4%
8,COCc1cc(C2SCC(=O)Nc3c2c(=O)[nH]n3C(C)C)ccc1OC (centres unmarked),3.23%
9,CCOC(=O)C1=C(C)N=c2s/c(=C/c3ccccc3)c(=O)n2C1c1ccc(OC)c(OC)c1 (centres unmarked),1.03%
10,COCCCNC(=O)c1sc2ncn(CC(=O)Nc3ccc(C)c(Cl)c3)c(=O)c2c1C,-6.07%
11,Cc1ccccc1NC(NC(=O)c1cccs1)C(Cl)(Cl)Cl (centres unmarked),11.4%
12,CC1(C)Cc2c(cnn2-c2cccc(F)c2)C(NC(=O)CSc2ccccn2)C1 (centres unmarked),-20.6%
13,COc1ccc(-c2[nH]n(-c3ccc([N+](=O)[O-])cc3)c(=O)c2C=NCc2ccccc2)cc1,3.2%
14,CN(Cc1ccccc1)C(=O)C1CCN(S(=O)(=O)c2cc([N+](=O)[O-])ccc2Cl)CC1,-54.6%
15,CCCOc1ccc(/C=N/NC(=O)CSc2ccccn2)cc1OC,-10.2%
16,O=[N+]([O-])c1ccc(N2CCNCC2)cc1NCc1cccnc1,-8.35%
17,CC(Oc1ccc2c3c(c(=O)oc2c1)CCC3)C(=O)NCCN1CCOCC1 (centres unmarked),23%
18,O=C(CCS(=O)(=O)c1ccccc1)Nc1ccc(S(=O)(=O)Nc2ncccn2)cc1,19.3%
19,NNC(=S)NC1CCCCCCCCCCC1,-31.2%
20,O=C(Cn1c(=O)oc2cc(S(=O)(=O)N3CCc4ccccc43)ccc21)N1CCCCC1,-7.38%
21,CCOC(=O)c1nnn(-c2nonc2N)c1C,7.69%
22,Cc1cc(C(=O)COC(=O)C23CC4CC(CC(O)(C4)C2)C3)c(C)n1-c1c(C)n(C)n(-c2ccccc2)c1=O,6.29%
23,O=C(N/N=C/c1cccc([N+](=O)[O-])c1)C(=O)N1CCCCCC1,-52.5%

row,SMILES,"hERG current change (%, negative = inhibition) at 10uM"
1,CCN(CCn1cccn1)C(=O)CCc1nnc(-c2ccc3c(c2)OCO3)o1,-5.68%
2,N#CCCN(CCC#N)c1nnc(-c2ccccc2)s1,-5.98%
3,COc1cccc2[nH]c(C(=O)NCCc3ccccc3)cc12,6.83%
4,O=C1CC(c2cccc(Br)c2)C2=C(COC2=O)N1 (centres unmarked),23.8%
5,C=CCn1c(=O)/c(=C/c2ccc(C)o2)s/c1=C(/C#N)C(=O)c1ccccc1,12.2%
6,Cc1nnc(C)n1/N=C/c1cc(Br)ccc1O,9.86%
7,CN(NS(=O)(=O)c1ccc(Cl)cc1)c1cnn(C)c(=O)c1Cl,13.2%
8,CCOC(=O)C1=NNC2(c3ccc(C)cc3)C(=O)N(c3ccccc3)C(=O)C12 (centres unmarked),2.65%
9,O=C(NCc1ccc2c(c1)OCO2)c1nn2cccnc2c1Cl,-3.65%
10,Cc1ccc(C(=O)Nc2ccc(N3CCOCC3)c3nonc23)cc1[N+](=O)[O-],5.58%
11,O=c1c2ccccc2nc(-c2ccccc2)n1Cc1ccco1,-30.5%
12,CCOn1c(=O)c(-c2cc3ccccc3o2)[n+]([O-])c2ccccc21,4.12%
13,Cc1cc(C(=O)N/N=C/c2cc(Br)cc(Br)c2OC(=O)c2cccc(F)c2)n[nH]1,25.5%
14,O=C(CSc1n[nH]c(-c2ccccc2)n1)Nc1ncc(Br)cc1Br,-21.8%
15,CCC1CCCCN1C(=O)CNCC1CCCO1.Cl (centres unmarked),2.47%
16,OCc1ccccc1N=Cc1cccnc1,6.56%
17,CC1OC(Nc2ccc(N=Nc3ccccc3)cc2)C(O)C(O)C1O (centres unmarked),12%
18,CCN(C(=O)CSc1nnc(Cn2nnc3ccccc32)o1)c1nc(-c2ccccc2)cs1,-6.33%
19,CCc1nn2c(=O)c(S(=O)(=O)Nc3ccccc3)c(C)nc2s1,-5.23%
20,Clc1nnc(Cl)c2c1ncn2Cc1ccccc1,15%
21,CC1=C(C(=O)OCc2ccccc2)C(c2ccc(C#N)cc2)NC(=O)N1CCCC(=O)O (centres unmarked),10.9%
22,CC(=O)c1c[nH]c(C(=O)Nc2ccc(N3CCCCCC3)cc2)c1,-4.77%
23,CCc1nnc(NC(=O)CSc2nnc(-c3ccncc3)n2C)s1,9.6%

row,SMILES,"hERG current change (%, negative = inhibition) at 10uM"
1,Cc1ccccc1C(=O)NC(=S)NCCN1CCOCC1,-2.77%
2,COc1ccc(/C=C2\CCc3c2nc2ccccc2c3C(=O)O)cc1OC,-6.74%
3,Cc1nn(CCOc2ccccc2)c(=O)n1-c1ccc(Cl)cc1,-3.66%
4,Cc1ccc(N/C(=C\C(=O)c2ccccc2)C(=O)O)cc1,-11.6%
5,CCc1ccc(NC(=O)CSc2nnc(CNC(=O)c3ccco3)o2)cc1,-14.5%
6,COc1ccc(C2(C(=O)NCC3CCCO3)CCOCC2)cc1 (centres unmarked),5.22%
7,COC(=O)C1=C(C)N(C)C(=O)NC1c1cc2c(cc1Br)OCO2 (centres unmarked),13.3%
8,CCOC(=O)c1cnc(SCC(=O)Nc2nc(C)c(C)s2)nc1N,-61.9%
9,O=C(Cc1ccc([N+](=O)[O-])cc1)OCc1ccc([N+](=O)[O-])cc1,19.2%
10,O=C1COc2ccc(NC(=O)c3ccccc3C(=O)O)cc2N1,21.6%
11,CCCNC(=O)c1ccc(N2CCC3(CC2)CC(c2ccccc2)=NO3)c(N)c1,-7.96%
12,N#Cc1cccc(NC(=O)c2ccc(S(=O)(=O)N3CCOCC3)cc2)c1,-28.7%
13,Cc1c(C(=O)N2CCCCC2)sc(NC(=O)C(C)C)c1C#N,3.51%
14,Cc1nnsc1S(=O)c1ccc(Cl)cc1 (centres unmarked),6.12%
15,O=C(c1ccccc1Cl)N(Cc1ccc(Cl)c(Cl)c1)N1C(=O)CCCC1=O,-6.37%
16,COc1cc(CC(=O)Nc2ccc(S(=O)(=O)NC3=NCCCCC3)cc2)cc(OC)c1OC,14%
17,CSCCOC(=O)COc1ccc(/C=N/NC(=O)c2nn(C)cc2Cl)cc1,-38.4%
18,O=C(CSCc1ccccc1Cl)N1CCN(c2ccccn2)CC1,-19.2%
19,CCOc1ccc(N2C(=O)CC(n3nc(C)cc3C)C2=O)cc1 (centres unmarked),1.62%
20,C/C(=N\Nc1nncc2ccccc12)c1ccc(OCC(=O)N(C)C)cc1,8.27%
